Results as given in the supplement of paper PMC11417369.
± gives the standard deviation of the averaged measurements. Some of the results follow.

system: PfAP2-EXP AP2 domain (GST-tagged); assay: gcPBM binding intensity (ln(normalized median fluorescence intensity)); higher = stronger DNA binding
In short: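 Binding intensity is defined as the maximum Masliner-normalised natural-log median intensity across replicate spots for either probe orientation. It was measured on an Agilent 4 × 180k array of primer-extended double-stranded 36-bp intergenic genomic probes and negative controls, to which GST-tagged P. falciparum DNA-binding domains made in E. coli were applied for 1 h in 1× PBS with 1% milk, 0.2 mg/ml BSA, 0.5% salmon testes DNA and 0.03% Triton X-100. Detection was by Alexa488 anti-GST antibody and scanning at 488 nm.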

“TTAATTTTTTTTTAAACACACATTTTTTTATTTAAG [CACACA_site2738]” and “GTTATAAATAATAAATAAATAATCAAATGAAGAATG [CACACA_negctrl_site653]” are within error of each other in “gcPBM binding intensity (ln)” value: 8.21 ± 0.57 for the first, 8.71 ± 0.39 for the second.

“TATTAATTTTTTTTTTTTTTTTTTTTTTTTTTTTTT [CACACA_negctrl_site1329]” and “AGGAGGATAGTTCACAGTACCCAGGAAATCTGCGGA [XGTACX_site4928]” are within error of each other in “gcPBM binding intensity (ln)” value: 9.15 ± 0.085 for the first, 8.58 ± 0.54 for the second.

First: TTTATTTTCCAAAGGGTGCACATAGTTAAAACGATA [GTGCAC_site9855]
Second: TATGCAATAAAATATACACACAATATACTTATATAT [CACACA_site7691]
The “gcPBM binding intensity (ln)” value of the first is higher: 9.86 ± 0.88 for the first, 8.44 ± 0.22 for the second.

“AGAATAAATATGTGGTGTTATAGTATTAATGTTAAT [TGCATGCA_negctrl_site62]” and “AATAAATACACATACACACACGACGCTAGTATATGT [CACACA_site6627]” are within error of each other in “gcPBM binding intensity (ln)” value: 8.44 ± 0.33 for the first, 8.29 ± 0.4 for the second.

“ATAAATATACCAATCGGTACACATTTATACAAACAA [XGTACX_site7484]” and “GCTATAAATATAATCACACATAAATATATAATATAT [CACACA_site5144]” are within error of each other in “gcPBM binding intensity (ln)” value: 8.36 ± 0.12 for the first, 8.23 ± 0.29 for the second.

“ATTTACCTATATATTTGTACTTACATAATGCTACCT [XGTACX_site2693]” and “TAAAGAGAGACATCAACACACATACGTATGTATAGA [CACACA_site4896]” are within error of each other in “gcPBM binding intensity (ln)” value: 8.96 ± 0.43 for the first, 8.58 ± 0.49 for the second.

“AATATATTGTTTCCTGATATTAAATTCAATTTAATG [GTGCAC_negctrl_site22]” and “TAAAAAAAAATATATAAACACACATATTTATATACA [CACACA_site8469]” are within error of each other in “gcPBM binding intensity (ln)” value: 8.48 ± 0.46 for the first, 8.13 ± 0.33 for the second.

Going from “ATTCTATATGAAAAATGTACAAATAAAAATTCTAAG [XGTACX_site8900]” to “CCAATGTTTTCTTGTGTACACATCATTAAAGAAAAA [CACACA_site5300]”, the “gcPBM binding intensity (ln)” value rises from 8.46 ± 0.33 to 9.02 ± 0.099.

“CATGAAAATATTATGTGTACTTAATGCACATTCAAA [XGTACX_site1952]” and “CACGCATACAGACACACACACACACCGATATATATA [CACACA_site8113]” are within error of each other in “gcPBM binding intensity (ln)” value: 8.55 ± 0.11 for the first, 8.71 ± 0.36 for the second.

“AAAAAAAAACAAAAAAGTACAAAATAAAAATACGTT [XGTACX_site4566]” and “CTCTTCATATATAATTGTACACACAAAAACGACATT [XGTACX_site4287]” are within error of each other in “gcPBM binding intensity (ln)” value: 8.71 ± 0.58 for the first, 9.04 ± 0.57 for the second.

“AATAAATATATACATTGTACATATATAATATATATA [XGTACX_site1458]” and “TAAATTATAATATGCACACAAAATGTTATATTAAAA [CACACA_site376]” are within error of each other in “gcPBM binding intensity (ln)” value: 8.41 ± 0.092 for the first, 8.13 ± 0.23 for the second.

“TATATATATTTTGGCTGTACATCAGCGTATATTTTT [XGTACX_site3233]” and “CCTATCCATGCATATACACACATATCTATTTATATA [CACACA_site6886]” are within error of each other in “gcPBM binding intensity (ln)” value: 8.46 ± 0.29 for the first, 8.99 ± 0.35 for the second.

“CATATATACGCATACACACACACACCCACACCCACA [CACACA_site1725]” and “TACAAATATATATGCACACACATATACATACAGATA [CACACA_site5238]” are within error of each other in “gcPBM binding intensity (ln)” value: 8.79 ± 0.52 for the first, 8.41 ± 0.35 for the second.

“TGATGAAAATCTACATGAATGTTTTTATATCTATAT [GTGCAC_negctrl_site139]” and “TATTTATACCTATACACACACACACGGATATTTATA [CACACA_site7123]” are within error of each other in “gcPBM binding intensity (ln)” value: 8.25 ± 0.31 for the first, 8.63 ± 0.53 for the second.

“AATTAACAAAAACACACACACACACCGACAAAAAAA [CACACA_site4444]” and “ATATGCTTATTGTAAAGTACATTATTATTTTTCCTA [XGTACX_site5479]” are within error of each other in “gcPBM binding intensity (ln)” value: 8.72 ± 0.59 for the first, 8.51 ± 0.29 for the second.

“GATAAAATCACTGGTGCATGTAGATATATAATATTA [TGCATGCA_site589]” and “ATGAATAAATAAGACACACACGAAAATAAGTAAAAA [CACACA_site4216]” are within error of each other in “gcPBM binding intensity (ln)” value: 9.03 ± 0.042 for the first, 9.13 ± 0.44 for the second.

Compared with “TATTTTGATTATTCAGTGTATAAATATATATATATA [CACACA_negctrl_site545]”, TAGTTAGCCCAAGGGGTGCTAATTACTATCTAAATA is lower in “gcPBM binding intensity (ln)” value: 9.79 ± 0.31 for the first, 8.08 ± 0.13 for the second.

“CATACATATAAACACACACACACACCCACCCACAAA [CACACA_site8059]” and “TATAGAAGCAAATTATGTACACAATATGGAAAATCA [XGTACX_site3345]” are within error of each other in “gcPBM binding intensity (ln)” value: 9.11 ± 0.74 for the first, 8.97 ± 0.47 for the second.

“TTTATAAATATTCTCACACACTTTTTATTTTAACAA [CACACA_site6454]” and “AACACCAATTCATATGCACACACATCTGCATATTAT [CACACA_site8523]” are within error of each other in “gcPBM binding intensity (ln)” value: 8.39 ± 0.42 for the first, 8.89 ± 0.31 for the second.

“GTCGAGGATATATAAAGTACATATATATATATGATA [XGTACX_site1128]” and “TAATGTATCTAAAATTGTACAAATATAAATATAAAT [XGTACX_site2764]” are within error of each other in “gcPBM binding intensity (ln)” value: 8.61 ± 0.28 for the first, 8.52 ± 0.33 for the second.

“CACTAAATAAGGAAAGTGCATAAAATAAAGGTTATA [GTGCAC_site9793]” and “TAGTTACCTTAATATTGTACTTTTCTTTCATATATG [XGTACX_site1309]” are within error of each other in “gcPBM binding intensity (ln)” value: 8.91 ± 0.39 for the first, 8.82 ± 0.38 for the second.

“ATAGTTTCTGGTAGCTGTACGAGTCGTAGAGTGCAG [XGTACX_site2022]” and “GTGTCAAATTTTATAACACACAAAAGGTTATATAAG [CACACA_site7839]” are within error of each other in “gcPBM binding intensity (ln)” value: 8.73 ± 0.6 for the first, 8.47 ± 0.45 for the second.

“TACAGTTTTTCTTTGAATTTATCAAGTTTTTTTCCC [XGTACX_negctrl_site60]” and “ATTTAAAAAATATATTGTACATATTTTATTATGTTT [XGTACX_site2984]” are within error of each other in “gcPBM binding intensity (ln)” value: 8.56 ± 0.6 for the first, 8.29 ± 0.35 for the second.

“AAAAAAAAATTGTGTACACATAATTATATCATATGT [CACACA_site4500]” and “ATGGATAATAAGTTTACACACAAAAAAAAAGAAAAA [CACACA_site861]” are within error of each other in “gcPBM binding intensity (ln)” value: 8.56 ± 0.23 for the first, 8.65 ± 0.48 for the second.

“ATAAGAATCATATTTAAACACACATACATATATATA [CACACA_site9106]” and “ATTATATTAACAATGACATGCAATTCTTAATCCTTA [TGCATGCA_site648]” are within error of each other in “gcPBM binding intensity (ln)” value: 8.84 ± 0.31 for the first, 8.41 ± 0.45 for the second.

“AAAAAAAAAAAATACACACACATAAAAAAAAAAATA [CACACA_site1858]” and “TTTTTATTGGTGAATACACACGTATATATATATTAT [CACACA_site8756]” are within error of each other in “gcPBM binding intensity (ln)” value: 8.37 ± 0.41 for the first, 8.71 ± 0.52 for the second.

“ATTAAATAAACCATTACACACTTTTATGTTTTGAAA [CACACA_site1143]” and “CACAAACAAAAACACACACACACACCGACAAAAATG [CACACA_site5362]” are within error of each other in “gcPBM binding intensity (ln)” value: 8.41 ± 0.39 for the first, 8.59 ± 0.61 for the second.

“TTCTTTCTAGAATATTGTACATATATTGTTATTATA [XGTACX_site8425]” and “AAAAGAAGATAATACAGTACAGAATAATATAAAATA [XGTACX_site5962]” are within error of each other in “gcPBM binding intensity (ln)” value: 8.54 ± 0.35 for the first, 8.82 ± 0.3 for the second.
